First the molecules themselves.
B1: CPEB3 Ribozyme (parent)
chain: UAACAGGGGGCCACAGCAGAAGCGUUCACGUCGCAGCCCCUGUCAGAUUCUGGUGAAUCUGCGAAUUCUGCUGUAUAUCUC

The source gives no read counts; variants with many changes may rest on few reads.

In the data set the parent is B1. In words: self-cleavage, relative activity (ratio to wild type); higher = more cleavage; in vitro, sequencing. The procedure, abridged:
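Barcoded CPEB3 ribozyme mutants, produced by rounds of error-prone PCR, self-cleaved while being transcribed with T7 RNA polymerase for 5 hours at 37°C and during a subsequent 15 min DNase I step before EDTA was added. Sequencing of template-switched cDNA on Illumina gave cleaved and total reads, and DNA sequencing assigned barcodes to variants. Each variant's relative activity is its cleaved/total read fraction divided by the unmutated ribozyme's fraction, averaged across three batches. A variant needed a minimum of 5 reads.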
On to CAACAGGGGGCCACAGCCGAAGCGUACACGUCGCAGCCCCUGUCGGAUUCUGGAGAAUCUGCGAAUUCUACUGUAUAUCUC [U1C A18C U26A A45G U54A G70A], for which the self-cleavage was 0.08.

As to CAACAGGGGGCCACAGCGGAAGCGUUCACGUCGCAGCCCCUGUCAGCUUCUGGUGAAUCCGCGAAUUCUGCUGUAUGUCGC [U1C A18G A47C U60C A77G U80G], the self-cleavage was 0.01. Take CAACAGGGGGCCACAGCUGCAGCGUUUACGUCGCAGCCCCUGUCAGAUUCUGGUGAAUCUGCGAAUUCUGCUGUAUAUCUC [U1C A18U A20C C27U]: the self-cleavage came out at 0.06. The figure for CAACAGGGGGCCACAGCGGAAGCGUCCACGUCGCAGCCCCUGUCAGAUUCAGGUGAGUCUGCGAGUUCUGCUGUAUAUCUC [U1C A18G U26C U51A A57G A65G] is 0; for CAACAGGGGGCCACAGCGGAAGCGUCCACGUAGCAGACCCUGUCGGAUUCUGGUGAAUCUGCGAAUUCUGCUGUAUAUCUC [U1C A18G U26C C32A C37A A45G] it is 0.05; for CAACAGGGGGCCACAGCGGUAGCGUUCACGUCGCAGCCCCUGUCAGAUUCUGGUGAAUCUGCGAAUUCUGCCGUAUAUCUC [U1C A18G A20U U72C] it is 0.06. The figure for CAACAGGGGGCCACUGCAGAAGCGUUCACGCCGCAGCCCCUGUCUGAUUCUGGUGAAUCCGCGAAUUCUGCUGUAUAUCUC [U1C A15U U31C A45U U60C] is 0.05. With CAACAGGGGGCCACAGCGGAAGCGUUCACGUCGCAGCCCCUGUCAGAUUCUGGUGAAUCUGCGAAUUCUGCUGUGAAUCUC [U1C A18G A75G U76A] the figure was 0.72; with CAACAGGGGGCCACAGCGGAAGCGUUCACGUUGCAGCCCCUGUCAGAUUCUGGUGAAUCUGCGAAUUCUGCUGUAUAUCUC [U1C A18G C32U], 0.08.

Consider CAACAGGGGGCCACAGCCGAAGCGUUCACGUCGCAGCCCCUGUCAGAUUCUGGUGAAUCUGCGAGAUCUGUUGCAUAUCUC [U1C A18C A65G U66A C71U U74C], for which the self-cleavage was determined as 0.06.

CAACAGGGGGCCACAGCGGAAGCGCUCACGUCGCAGCCCAUUUCAGAUUCUGGUGAAUCUGCGAAUUCUGCUGUAUAUCCC [U1C A18G U25C C40A G42U U80C]: the self-cleavage worked out at 0.09.

CAACAGGGGGCCACUGCAGAAGCGCUCACGUCGCAGCCCCUGUCAGAUUCUGGUGAAUCUGUGAAUUCUGCUGUAUAUCUC [U1C A15U U25C C62U]: the self-cleavage turned out to be 0.25. Take CAACAGGGGGCCACAGCUGAAGCGUUCACGUCGUAGCCCCUAUCGGAUUCUGGCGAAUCUGCGAAUACUGCUGUAUAUCUC [U1C A18U C34U G42A A45G U54C U67A]: the self-cleavage came to 0.1. The figure for CAACAGGGGGCCACAGCUGAAGCGUUCACGUCGCAGCCCCUGUCAGAUUCUGGUGAAUCCGCGAAUUCUGCUGUAUAUGUC [U1C A18U U60C C79G] is 0.11; for CAACAGGGGGCCACAGCGGAGGCGUUCACGUCGCAGCCCCUGUCAGAUUCAGGUGAAUCUGCUAAUUCUGCUGUAUAUCUC [U1C A18G A21G U51A G63U] it is 0.22. With CAACAGGGGGCCACAGCGGAAGUGUUCACGUCGCAGCCCCUGUCAGAUUCUGGCGAAUCUGCGAAUCCUGCUGUAUAUCCC [U1C A18G C23U U54C U67C U80C] the figure was 0.12. The figure for CAACAGGGGGCCACAGCGGAAGCGUUCACGUCGCAGCCCCUGUCAGAUUGUGGUGAAUCUGCGGAUUCUGCUGUAUUUCUC [U1C A18G C50G A64G A77U] is 0.1; for CAACAGGGGGCCACAGCUGGAGCGUUCACGUCGCAGCCCCUGUCAGAUUCUGGUGAAUCAGCGAAUUCUGCUGUAUAUCUC [U1C A18U A20G U60A] it is 0.23.

On to CAACAGGGGGCCACUGCAGAAGCGUUCACGCCGCAGCCCCUGUCAGAUCCUGGUGAAUCUGCGAAUUCUGCUGUAUAUCUC [U1C A15U U31C U49C], for which the self-cleavage came out at 0.21.

On to CAACAGGGGGCCACAGCGGAAGCGUUCACGUCGCAGCCCCUGUCAGAUUCUGGUGAAUCUGCGAAUUCUGCUGUACAUCUC [U1C A18G U76C], for which the self-cleavage was determined as 0.51. With CAACAGGGGGCCACAGCUGAAGCGUUCACGACGCAGCCCCUGUCAGAUUCUGGUGAAUCUGCGAAUUCUGCUGUAUAUCUC [U1C A18U U31A] the figure was 0.07; with CAACAGGGGGCCACAGCGGAAGCGUUCACGUAGCAGACCCUGUCAGAUUCUGGUGAAUCUGCGAAUUCUGCUGUAUAUCUC [U1C A18G C32A C37A], 0.21.

Take CAACAGGGGGCCACAGCUGAAGCGUUCUGGUCGCGGCCCGUGUCAGAUUCUGGUGAAUCUGCGAAUUCUGCUGUAUAUCUC [U1C A18U A28U C29G A35G C40G]: the self-cleavage is 0.14. With CAACAGGGGGCCACAGCUGAAGCGUUCACGUCGCAGCCCCUAUCAGGUUCUGGUGAAUCUGCGAAUUCUGGUGUAUAUCUC [U1C A18U G42A A47G C71G] the figure was 0.14; with CAACAGGGGGCCACAGCCGAGGCGUUCACGUCGCGGCCCCUGUCAGAUUCUGGUGAAUCUGCGAAUUCUGCUGUAUAUCUU [U1C A18C A21G A35G C81U], 0.22. The figure for CAACAGGGGGCCACAGCGGGAGCGUUCACGUCGCAGCCCCUGUCAGAUUCUGGUGAAUCUGCGAACUCUGCUGUAUAUCUC [U1C A18G A20G U66C] is 0.36; for CAACAGGGGGCCACAGCGGAAGCGCUCCCGUCGCAGCCCCUGUCAGUUUCUGGUGAAUCUGCGGAUUCUGCUGUAUAUCUC [U1C A18G U25C A28C A47U A64G] it is 0.04; for CAACAGGGGGCCACAGCGGAAGCAUUCACGUCGCAGCCCCUGUCAGAUUCUGGUGAAUCUGCGAAUUCUGCUGUAUAUCUC [U1C A18G G24A] it is 0.37. As for CAACAGGGGGCCACAGCGGAAGCGUUCACGUCGCAGCCCCUGUCAGAUUCCGGUGAAUUUGCGAAUUCUGCUGUAUAUCUC [U1C A18G U51C C59U], the self-cleavage was 0.2. The figure for CAACAGGGGGCCACAGCCGAAGCGUUCACGUCGCAGACCCUGUCAGAUUCUGGUGAAUCCGCGAAUUCUGCCGUAUAUCUC [U1C A18C C37A U60C U72C] is 0.08; for CAACAGGGGGCCACAGCCGAGGCGUUCUCGUCGCAGCCCCUGUCAGAUUCUGGUGAAUCUGCGAAUUCUGCUGUAUAUCUC [U1C A18C A21G A28U] it is 0.32. With CAACAGGGGGCCACUGCAGAAGCGUACACGUCGCAGCCCCUGUCAGAAUCUGGCGAAUCUGCGAAUUCUGCUGUAUAUCUC [U1C A15U U26A U48A U54C] the figure was 0.05; with CAACAGGGGGCCACAGCGGAAGCGUUCACGUCGCAGCCUCUGUCAGAUUCUGGUGAGUCUGCGAAUUCUGCUGUAUAUCUC [U1C A18G C39U A57G], 0.07; with CAACAGGGGGCCACAGCUGAAGCGUUCACGUCGCAGCCCCUGUCAGAUUCUGGUGGAUCCGCGAAUUCUGCUGUAUAUCUC [U1C A18U A56G U60C], 0.16.

The values are drawn from the RNAGym collection of RNA variant scans (doi:10.1093/nar/gkz1192).
